The text below walks through data of PubChem BioAssay AID1508642 (National Center for Advancing Translational Sciences (NCATS), 2021).

SMILES strings stand for the structures. In all, about 43,000 compounds went through this assay and about 200 (0.47%) were called active. Inconclusive results (about 12%) are left out. The call rests on the fitted dose curve; in most records, active means well fitted cell-killing curve with a large enough effect; inconclusive means small, poorly fitted or top-dose-only effect, or effect the other way; inactive means flat fitted curve, though single readings scatter. The list shows a part of the results.
On the % scale 0 is the no-effect control and ±100 the full control effect; potency means the concentration at half of the fitted maximal effect.

The assay is described as follows: Cell viability qHTS assay in S16 Pmp22-F2sN cells. Further: nearly all actives have a fitted effect of over 65% in size. Conditions: S16 Pmp22-F2sN Schwann cells (luciferase reporters placed in the Pmp22 gene) viability, CellTiter-Glo, 24 h; series mostly up to 57.5 µM; activity change, negative = cytotoxicity: at the top concentration. In short, it runs like this: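 Seed 500-1,000 S16 Pmp22-F2sN cells per well in phenol-red-free DMEM with 10% heat-inactivated FBS; pin-add 23 nL compound; incubate 24 h at 37C; add CellTiter-Glo, wait 15 min protected from light; read luminescence.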
`CCc1c(C)sc2c1CCN(Cc1ccc(F)cc1)C2c1ccccc1` (configuration not stated): the Potency is active: 8.91 µM.

Turning to `Cc1ccc2nc(N(Cc3cccnc3)C(=O)C3COc4ccccc4O3)sc2c1` (configuration not stated), the “activity change, negative = cytotoxicity” value was inactive: 2.36%.

Regarding `CCc1ccc(CN(C(=O)c2cc3ccccc3oc2=O)C2CCS(=O)(=O)C2)cc1` (configuration not stated), the “activity change, negative = cytotoxicity” value is inactive: -7.94%.

With `COc1ccc(Cl)cc1NC(=O)CCC(=O)c1ccc(C)cc1`, the “activity change, negative = cytotoxicity” value is inactive: 2.53%.

In the case of `CC(=O)c1ccc(NC(=O)c2ncn(-c3ccccc3)n2)cc1`, the “activity change, negative = cytotoxicity” value is inactive: 9.36%.

As for `Cc1cc(O)c(C(c2ccccc2Cl)N2CCN(c3ccccc3)CC2)c(=O)n1Cc1ccco1` (configuration not stated), the “activity change, negative = cytotoxicity” value is inactive: -25.2%.

On to `Cc1ccc(C)c(NC(=O)CCCn2nc(C)c3sc4ccccc4c3c2=O)c1`, for which the “activity change, negative = cytotoxicity” value is inactive: 3.54%.

For the compound `COc1cc(NC(=O)c2cnn(-c3cccc(F)c3)c2C2CCNCC2)cc(OC)c1OC`, the “activity change, negative = cytotoxicity” value was inactive: -2.65%.

Regarding `CCc1nnc(NC(=O)CSCc2cc(=O)c3ccc(C)cc3[nH]2)s1`, the “activity change, negative = cytotoxicity” value is inactive: 8.61%.

For the compound `COc1ccc(NC(=O)CN(Cc2ccccc2)S(=O)(=O)c2ccc3nc(C)sc3c2)cc1`, the “activity change, negative = cytotoxicity” value was inactive: -0.77%.

As to `COc1ccc(CNC(=O)CC2N=C3c4ccccc4N=C(SCC(=O)Nc4ccc(N(C)C)cc4)N3C2=O)cc1` (configuration not stated), the “activity change, negative = cytotoxicity” value is inactive: -2.27%.

For the compound `O=C(CSc1oc(-c2ccco2)nc1S(=O)(=O)c1ccc(Cl)cc1)c1ccc(Cl)cc1`, the “activity change, negative = cytotoxicity” value is inactive: -0.558%.

As for `Cc1ccc2oc(=O)c3cc(C(=O)N(Cc4ccccc4)C(C)C)sc3c2c1`, the “activity change, negative = cytotoxicity” value is inactive: -11.2%.

With `CCN1CCC(N(Cc2cccc(OC)c2)C(=O)Nc2ccc(C)cc2Cl)CC1`, the “activity change, negative = cytotoxicity” value was inactive: -19%.

As to `Cc1ccc(CSc2nc(=O)c3c(n2C)NC(=O)CC3c2ccc(OC(C)C)cc2)cc1` (configuration not stated), the “activity change, negative = cytotoxicity” value was inactive: 3.04%.

As for `CCCCCNC(=O)C(=O)NCC(c1ccc2c(c1)OCO2)N1CCOCC1` (configuration not stated), the “activity change, negative = cytotoxicity” value is inactive: 21.8%.

In the case of `Cc1ccc(NC(=O)Cn2c(-c3ccc4c(c3)OCO4)cn(-c3ccccc3)c2=O)cc1`, the “activity change, negative = cytotoxicity” value was inactive: -7.32%.

Consider `Cc1ccc2c(c1)c1c(c(=O)n(Cc3ccccc3)c(=O)n1CC(=O)Nc1ccccc1C)n2C`, for which the “activity change, negative = cytotoxicity” value was inactive: 0.454%.

As to `COc1ccc(-c2c3c(=O)n(C)c(=O)n(C)c3c3c(-c4ccc(C)cc4)nc4ccccc4n23)cc1`, the “activity change, negative = cytotoxicity” value is inactive: -5.28%.

Take `CC(=O)N1CCc2cc(Br)cc(S(=O)(=O)CCC(=O)N3CCN(c4ccccc4)CC3)c21`: the “activity change, negative = cytotoxicity” value is inactive: 13.3%.

Consider `Cc1nc2cc(C(=O)NC3CCCCCC3)ccc2n1-c1ccc(Br)cc1`, for which the “activity change, negative = cytotoxicity” value is inactive: -15.5%.

On to `Cc1ccc(Cn2c(SCC(=O)NCc3ccccc3Cl)nc3ccsc3c2=O)cc1`, for which the “activity change, negative = cytotoxicity” value was inactive: 14%.

In the case of `Fc1ccc(Nc2nc(SCc3ccccc3F)nc3ccccc23)cc1`, the “activity change, negative = cytotoxicity” value was inactive: -8.03%.

For the compound `COc1cc(NC(=O)CCCc2nnc3n(CC(C)C)c(=O)c4sccc4n23)cc(OC)c1`, the “activity change, negative = cytotoxicity” value is inactive: 6.74%.

On to `CN(C)S(=O)(=O)c1ccc2c(c1)N(CC(=O)Nc1ccc(F)cc1)C(=O)CS2`, for which the “activity change, negative = cytotoxicity” value was inactive: 0.0249%.

As to `Cc1cc(-c2ccc(C)c(S(=O)(=O)NCCc3ccc(S(N)(=O)=O)cc3)c2)on1`, the “activity change, negative = cytotoxicity” value was inactive: -3.09%.

With `CC(C)c1ccc(NS(=O)(=O)c2ccc3[nH]cc(C(=O)NCC4CCCO4)c(=O)c3c2)cc1` (configuration not stated), the “activity change, negative = cytotoxicity” value is inactive: -0.434%.

On to `CCOc1ccc2nc(N3CCCC(C(=O)Nc4ccc(OC)c(Cl)c4)C3)sc2c1` (configuration not stated), for which the “activity change, negative = cytotoxicity” value is inactive: 10.9%.

On to `CCc1ccc(S(=O)(=O)Nc2ccc3[nH]c(=O)sc3c2)cc1`, for which the “activity change, negative = cytotoxicity” value is inactive: 6.25%.

On to `Cc1cccc(NC(=O)c2sc3nc4c(cc3c2N)CN(C(C)C)CC4)c1`, for which the “activity change, negative = cytotoxicity” value is inactive: -5.16%.

On to `CC1=C(C(=O)OC2CCCCCC2)C(c2cccc(F)c2F)CC(=O)N1` (configuration not stated), for which the “activity change, negative = cytotoxicity” value is inactive: 5.93%.

`Cc1cccc(N2CCN(C(=O)CN3C(=O)COc4ccc(S(=O)(=O)N5CCOCC5)cc43)CC2)c1C`: the “activity change, negative = cytotoxicity” value was inactive: -0.365%.

Turning to `Cc1ccc(NC(=O)Cn2c(=O)n(CCCCC(=O)NCCc3ccc(Cl)cc3)c(=O)c3ccccc32)cc1`, the “activity change, negative = cytotoxicity” value was inactive: 22.9%.

For the compound `COc1ccc(CCNC(=O)c2oc(=O)c3ccccc3c2-c2ccccc2)cc1OC`, the “activity change, negative = cytotoxicity” value is inactive: -18.7%.

As for `COc1ccc(CNC(=O)CN2C(=O)COc3ccc(S(=O)(=O)N4CCC(C)CC4)cc32)cc1`, the “activity change, negative = cytotoxicity” value is inactive: 4.07%.

As to `COc1cc(NC(=O)CCS(=O)(=O)c2nc(-c3ccc4c(c3)OCO4)cc(C(F)(F)F)n2)cc(OC)c1OC`, the “activity change, negative = cytotoxicity” value was inactive: 15.7%.

`COC(=O)c1sc(N2C(=O)c3oc4ccccc4c(=O)c3C2c2ccc(O)cc2)nc1C` (configuration not stated): the “activity change, negative = cytotoxicity” value was inactive: -10.9%.

`CCCCNC(=O)C1CCC(CNS(=O)(=O)c2ccc(C)cc2)CC1` (configuration not stated): the “activity change, negative = cytotoxicity” value was inactive: 14.9%.

For `Cc1nc(NC(=O)c2c(-c3ccccc3)c(-c3ccccc3)nn(C)c2=O)sc1C`, the “activity change, negative = cytotoxicity” value was inactive: 4.83%.

For the compound `COCCCNC(=O)CSc1nc2cc3c(cc2c(=O)n1CCCCCC(=O)NCc1ccc2c(c1)OCO2)OCO3`, the “activity change, negative = cytotoxicity” value is inactive: -0.316%.

As to `COc1ccc(-c2cc(=O)c3cc(OCC(=O)OC(C)C)ccc3o2)cc1`, the “activity change, negative = cytotoxicity” value is inactive: -0.795%.

Take `COc1ccccc1NC(=O)C1CCN(S(=O)(=O)c2ccc3[nH]c4c(c3c2)CCCCC4)CC1`: the “activity change, negative = cytotoxicity” value is inactive: 2.17%.

Regarding `CCN1CCN(C(c2ccc(SC)cc2)c2c(O)cc(C)n(Cc3ccco3)c2=O)CC1` (configuration not stated), the “activity change, negative = cytotoxicity” value was inactive: 0.163%.

Consider `Cc1cc(C)c(NC(=O)CCn2c(=O)c3cccn3c3ccccc32)c(C)c1`, for which the “activity change, negative = cytotoxicity” value is inactive: -14.8%.

Take `O=C(COC(=O)C(Cc1c[nH]c2ccccc12)NC(=O)c1ccc(Cl)cc1)c1ccc(Cl)cc1` (configuration not stated): the “activity change, negative = cytotoxicity” value was inactive: 11.6%.

Consider `Cc1nn(-c2ccccc2)c2c1cc1c(=O)n(C)c(=O)nc-1n2-c1cccc(Cl)c1`, for which the “activity change, negative = cytotoxicity” value is inactive: 5.29%.

On to `Cc1cc(C(=O)NCc2cccc(Br)c2)c2c(C)nn(-c3ccccc3)c2n1`, for which the “activity change, negative = cytotoxicity” value was inactive: -0.947%.
